# Assay results from PubChem BioAssay (NCATS).
# The inconclusive results got no clear call from the source; some entries with a clear call stand among them for comparison. For some assays here: Where the call is inconclusive, the potency comes from a doubtful curve fit. For some assays here: A note “side channel” means that the fit belongs to a control or component signal, not to the main read-out. Active and inactive are the calls of the source. Unless noted, the call rests on the fitted dose curve; in most records, active means well fitted curve in either direction with a large enough effect (not every such curve was filed as active); inconclusive means small, poorly fitted or top-dose-only effect, or another doubt; inactive means flat fitted curve, though single readings scatter.
# Tests used:
# [1] = AP1 Signaling Pathway (AID 357); conditions: ME-180 AP-1-bla reporter, EGF-induced, beta-lactamase ratio, 5 h; at 17.2 µM (top of the series) unless noted;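 further: ME-180 reporter cells stimulated with EGF at its EC50 level; top concentration of the series differs between compounds; on the % scale 0 is the no-effect control and ±100 the full control effect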
# Summary of the method: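 Modulation of EGF-driven AP-1 transcription was assessed with a beta-lactamase reporter in ME-180 cells. Compound and EC50 EGF were co-incubated 5 hours at 37 °C before 2.5-hour CCF4 loading at room temperature and dual-emission reading.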
# [2] = NFAT Signaling Pathway (AID 444); conditions: Jurkat NFAT-bla M1, carbachol, beta-lactamase ratio, 5 h; at 17.2 µM (top of the series) unless noted;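 further: carbachol stimulus at about its EC50 of 1 µM final; on the % scale 0 is the no-effect control and ±100 the full control effect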
# Summary of the method: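 Jurkat cells carrying an NFAT-driven β-lactamase reporter and co-transfected muscarinic M1 receptor were treated with compound plus carbachol (1 uM final, an EC50 level) for 5 h at 37 °C. CCF4 loading followed for 1 h at RT; 460/530 nm ratio gave %activity.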
# [3] = Stat Signaling Pathway (AID 446); conditions: ME-180 SIE beta-lactamase reporter, IL-6 stimulated, 5 h; at 7.69 µM (top of the series) unless noted;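 further: ME-180 cervical cancer cells given 40 pM IL-6 alongside compound; SIE-controlled beta-lactamase reporter measured as 460/530 nm FRET emission ratio; top concentration of the series differs between compounds; on the % scale 0 is the no-effect control and ±100 the full control effect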
# Summary of the method: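 FRET read-out (405 nm excitation, 460/530 nm emission) of a beta-lactamase reporter under a STAT-inducible element in ME-180 cervical carcinoma cells. Cells with compound receive 40 pM IL-6 for 5 h. Values are normalised to AC90 stimulation and AC90 JAK-inhibitor controls.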
# [4] = target: 3',5'-cyclic-AMP phosphodiesterase 4B (Homo sapiens) (UniProt Q07343); assay: qHTS Assay for Inhibitors of PDE-IV (AID 607; active means well fitted activation curve with a large enough effect in the main read-out, with a control signal flat, not every such curve was filed as active; inconclusive means small, poorly fitted or top-dose-only effect, or effect the other way, or a change in a side signal; further: potency means the concentration at half of the fitted maximal effect; on activation (PDE inhibition): % of control where 0% means no effect); conditions: HEK293 ACTOne CNG channel cells, membrane potential fluorescence; activation (PDE inhibition): at 22.9 µM (top of the series)
# Summary of the method: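 Cell-based read-out of cAMP via a modified cyclic nucleotide-gated channel and membrane potential dye (535/590 nm) in HEK293 cells expressing PDE4 endogenously. Compounds tested up to 22.9 uM final; 100 uM RO 20-1724 reference.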
# [5] = qHTS Assay for Identification of Small Molecule Agonists for Hypoxia Response Element Signaling Pathway (AID 914; active means well fitted activation curve with a large enough effect in the signal ratio, with a control signal flat, not every such curve was filed as active; inconclusive means small, poorly fitted or top-dose-only effect, or effect the other way, or a change in a side signal; the % refers to the signal ratio; further: potency means the concentration at half of the fitted maximal effect); conditions: ME-180 (cervical carcinoma) HRE-bla reporter, beta-lactamase ratio, CoCl2, 17 h; activation: stronger effect = higher value
# Summary of the method: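 Reporter activity (beta-lactamase, CCF4 460nm/530nm ratio) in HRE-bla ME-180 cells is recorded after 17 h compound exposure with EC50 CoCl2 at 37 degrees Celsius. AC50 values come from titration data.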
# [6] = target: Cytochrome P450 3A4 (Homo sapiens) (UniProt P08684); assay: qHTS Assay for Inhibitors and Substrates of Cytochrome P450 3A4 (AID 884; active means well fitted curve in the direction sought with a large enough effect; inconclusive means small, poorly fitted or top-dose-only effect, or another doubt; inactive means no such curve, though single readings can be large; an effect the other way counts as inactive or inconclusive; further: potency means the concentration at half of the fitted maximal effect; nearly all actives have a fitted effect of over 50% in size)
# Summary of the method: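 Luminescent readout of luciferin produced by CYP3A4 (20 nM) dealkylation of Luciferin-PPXE, 25 uM (its KM). NADPH-driven reaction ran 60 min at RT after 10 min compound preincubation; data scaled to 57 uM ketoconazole as 100% inhibition.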
# [7] = target: Mitogen-activated protein kinase 10 (Mus musculus) (UniProt Q61831); assay: JNK3 AlphaScreen Assay (AID 530); conditions: JNK3 lysate, c-Jun phosphorylation; activity change, negative = inhibition: at 57.1 µM (top of the series);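 further: kinase came from lysate of stimulated human HepG2 cells; signal reports phosphorylation of biotinylated GST-cJun 1-79 at Ser73 with 10 µM ATP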; further: potency means the concentration at half of the fitted maximal effect; on activity change, negative = inhibition: on the % scale 0 is the no-effect control and ±100 the full control effect
# Summary of the method: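 Phosphorylation of biotinylated GST-cJun(1-79) at Ser73 is measured by AlphaScreen proximity luminescence. Enzyme is JNK3 in HepG2 lysates activated with interleukin-1beta and tumor necrosis factor alpha; ATP is 10 uM final.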
# [8] = target: Ubiquitin carboxyl-terminal hydrolase 1 (Homo sapiens) (UniProt O94782); assay: Inhibitors of USP1/UAF1: Pilot qHTS (AID 504865; active means well fitted curve in the direction sought with a large enough effect; inconclusive means small, poorly fitted or top-dose-only effect, or another doubt; inactive means no such curve, though single readings can be large; an effect the other way counts as inactive or inconclusive;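 further: rhodamine fluorescence freed from ubiquitin-rhodamine substrate followed over time; potency means the concentration at half of the fitted maximal effect; nearly all actives have a fitted effect of over 35% in size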)
# Summary of the method: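 Kinetic fluorescence assay: 1nM USP1/UAF1, 15 min compound preincubation, then 150nM Ub-Rho; 480/540 nm.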
# [9] = target: Cytochrome P450 2C9 (Homo sapiens) (UniProt P11712); assay: qHTS Assay for Inhibitors and Substrates of Cytochrome P450 2C9 (AID 883; active means well fitted curve in the direction sought with a large enough effect; inconclusive means small, poorly fitted or top-dose-only effect, or another doubt; inactive means no such curve, though single readings can be large; an effect the other way counts as inactive or inconclusive; further: potency means the concentration at half of the fitted maximal effect; nearly all actives have a fitted effect of over 60% in size); conditions: recombinant CYP2C9, luciferin-H luminescence, 60 min; activity change, negative = inhibition: at 57.1 µM (top of the series)
# Summary of the method: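 Human CYP2C9 (10nM) hydroxylated Luciferin-H (100uM, at its KM) to luciferin in 25mM KPO4. Compound was preincubated 10 min at 37C, then NADPH regeneration started a 60 min reaction at 37C. Luminescence was read after detection reagent, normalized to 57uM sulphaphenazole.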
# Tags describe the fitted curve by direction and shape or compound fluorescence and quenching.
# Sequence of UniProt Q07343 (Q07343 whole entry, looked up): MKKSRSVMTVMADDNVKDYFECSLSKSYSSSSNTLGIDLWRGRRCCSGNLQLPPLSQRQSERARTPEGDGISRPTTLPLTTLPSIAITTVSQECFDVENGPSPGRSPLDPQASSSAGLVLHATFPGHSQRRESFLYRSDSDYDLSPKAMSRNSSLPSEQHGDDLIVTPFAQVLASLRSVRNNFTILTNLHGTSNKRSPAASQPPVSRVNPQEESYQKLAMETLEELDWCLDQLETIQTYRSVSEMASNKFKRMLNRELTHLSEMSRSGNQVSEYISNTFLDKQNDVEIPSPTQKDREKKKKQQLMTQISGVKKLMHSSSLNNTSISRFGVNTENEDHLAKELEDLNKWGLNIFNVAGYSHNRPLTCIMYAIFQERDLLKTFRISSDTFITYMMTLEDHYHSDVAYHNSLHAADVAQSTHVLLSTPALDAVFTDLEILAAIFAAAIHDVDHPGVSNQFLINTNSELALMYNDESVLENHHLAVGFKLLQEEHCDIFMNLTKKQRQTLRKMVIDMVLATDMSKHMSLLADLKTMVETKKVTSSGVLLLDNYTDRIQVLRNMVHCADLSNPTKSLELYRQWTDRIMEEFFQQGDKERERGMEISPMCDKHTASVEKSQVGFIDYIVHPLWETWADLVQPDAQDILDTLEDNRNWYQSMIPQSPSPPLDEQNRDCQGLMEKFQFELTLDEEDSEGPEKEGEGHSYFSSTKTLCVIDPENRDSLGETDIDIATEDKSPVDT
# Sequence of UniProt P08684 (P08684 whole entry, looked up): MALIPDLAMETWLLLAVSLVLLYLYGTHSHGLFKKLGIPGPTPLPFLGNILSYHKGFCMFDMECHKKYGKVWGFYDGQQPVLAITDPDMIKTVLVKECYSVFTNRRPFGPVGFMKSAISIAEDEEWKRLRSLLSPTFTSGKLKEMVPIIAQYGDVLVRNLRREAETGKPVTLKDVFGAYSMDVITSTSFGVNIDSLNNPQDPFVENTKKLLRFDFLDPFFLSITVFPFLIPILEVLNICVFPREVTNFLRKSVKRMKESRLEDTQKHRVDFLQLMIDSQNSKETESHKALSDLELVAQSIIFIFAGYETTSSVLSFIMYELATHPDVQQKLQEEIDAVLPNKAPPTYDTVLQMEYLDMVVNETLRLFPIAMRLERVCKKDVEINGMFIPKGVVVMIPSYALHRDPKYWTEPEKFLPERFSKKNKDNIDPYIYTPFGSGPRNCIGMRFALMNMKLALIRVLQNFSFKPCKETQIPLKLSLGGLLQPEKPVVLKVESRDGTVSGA
# Sequence of UniProt P11712 (P11712 whole entry, looked up): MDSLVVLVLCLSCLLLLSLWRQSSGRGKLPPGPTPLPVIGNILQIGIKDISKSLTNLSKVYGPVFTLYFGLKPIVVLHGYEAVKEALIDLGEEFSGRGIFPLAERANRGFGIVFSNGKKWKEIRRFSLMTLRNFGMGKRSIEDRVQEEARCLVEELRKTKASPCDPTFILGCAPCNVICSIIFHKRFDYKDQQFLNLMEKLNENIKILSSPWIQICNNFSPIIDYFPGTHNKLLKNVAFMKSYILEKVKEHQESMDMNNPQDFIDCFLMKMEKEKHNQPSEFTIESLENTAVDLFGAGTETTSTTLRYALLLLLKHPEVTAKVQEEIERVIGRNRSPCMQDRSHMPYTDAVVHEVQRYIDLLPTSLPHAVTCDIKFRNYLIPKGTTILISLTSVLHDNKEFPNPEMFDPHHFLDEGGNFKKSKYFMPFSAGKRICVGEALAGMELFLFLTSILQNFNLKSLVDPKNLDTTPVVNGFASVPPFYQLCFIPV
# Sequence of UniProt O94782 (O94782 whole entry, looked up): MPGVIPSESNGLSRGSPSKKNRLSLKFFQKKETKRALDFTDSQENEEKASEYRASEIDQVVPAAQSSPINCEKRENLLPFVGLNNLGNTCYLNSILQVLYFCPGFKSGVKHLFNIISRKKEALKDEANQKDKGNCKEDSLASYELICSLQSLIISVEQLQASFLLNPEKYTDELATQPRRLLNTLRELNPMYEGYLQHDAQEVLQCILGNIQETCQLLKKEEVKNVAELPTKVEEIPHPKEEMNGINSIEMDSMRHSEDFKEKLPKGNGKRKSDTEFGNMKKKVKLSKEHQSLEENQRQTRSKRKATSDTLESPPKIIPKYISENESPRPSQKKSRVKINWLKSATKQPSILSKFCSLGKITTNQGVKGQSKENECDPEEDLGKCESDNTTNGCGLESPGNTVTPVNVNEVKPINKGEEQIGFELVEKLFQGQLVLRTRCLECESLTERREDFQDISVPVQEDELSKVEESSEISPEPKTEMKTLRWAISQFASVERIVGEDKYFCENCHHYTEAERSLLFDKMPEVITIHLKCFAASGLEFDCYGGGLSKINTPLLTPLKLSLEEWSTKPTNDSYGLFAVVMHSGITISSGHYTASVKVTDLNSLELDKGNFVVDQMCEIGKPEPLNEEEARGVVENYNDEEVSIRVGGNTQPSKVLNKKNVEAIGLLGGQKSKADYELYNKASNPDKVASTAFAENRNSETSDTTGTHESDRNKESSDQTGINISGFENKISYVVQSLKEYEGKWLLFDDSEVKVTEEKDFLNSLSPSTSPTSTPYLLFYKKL
Structure (SMILES),"activity change, negative = inhibition [1]","activity change, negative = inhibition [2]","activity, negative = inhibition [3]",Potency [4],Potency [5],Potency [6],Potency [7],Potency [8],Potency [9]
CN1CCN(c2ncc3nc(-c4cc(F)cc(F)c4)c(=O)n(CCc4ccccc4)c3n2)CC1,inconclusive: 87.6% [activator] [at 7.69 µM],inconclusive: 149% [activator] [at 7.69 µM],inconclusive: 122% [activator],inactive,active: 3.16 µM,,,,
CCNc1ncc2nc(-c3cc(F)cc(F)c3)c(=O)n(Cc3cccs3)c2n1,inconclusive: 68.9% [activator] [at 7.69 µM],inconclusive: 53.7% [activator] [at 7.69 µM],active: 135% [activator],"inconclusive: 10 µM [activator, partial curve]",active: 0.794 µM,"inconclusive: 5.01 µM [inhibitor, full curve]",,,
CCNc1ncc2nc(-c3ccc(F)cc3)c(=O)n(Cc3ccc(F)cc3)c2n1,inconclusive: 42.1% [activator] [at 7.69 µM],inactive: 18.8% [at 7.69 µM],inconclusive: 37.4% [activator],inactive,active: 1.58 µM,,inactive,"inconclusive: 14.1 µM [inhibitor, partial curve, poor fit]",
CCNc1ncc2nc(-c3ccc(Cl)cc3)c(=O)n(-c3ccc(OC)cc3)c2n1,inconclusive: 75.7% [activator] [at 7.69 µM],inconclusive: 48.7% [activator] [at 7.69 µM],inconclusive: 235% [activator],,"inconclusive: 3.98 µM [side channel, rising, single point]",,"inconclusive: 1 µM [activator, full curve, poor fit]",,
CCNc1ncc2nc(-c3cccs3)c(=O)n(C)c2n1,inconclusive: 99.1% [activator] [at 7.69 µM],inconclusive: 53.7% [activator] [at 7.69 µM],inconclusive: 46.6% [activator],,active: 3.16 µM,,inactive,,
COc1ccc(CNc2nc(-c3ccc(C(=O)N(C)C)cc3)nc3ccccc23)c(OC)c1,inconclusive: -32.6% [inhibitor] [at 7.69 µM],inconclusive: 32.9% [activator] [at 7.69 µM],inconclusive: -37.5% [inhibitor],"inconclusive: 12.6 µM [activator, partial curve]","inconclusive: 5.01 µM [activator, single point]","inconclusive: 3.98 µM [inhibitor, partial curve, poor fit]",,,
CC(=O)Nc1ccc(Cc2ccc3[nH]c(=O)cc(C)c3c2)cc1,inconclusive: 33.9% [activator] [at 7.69 µM],inconclusive: -53.2% [inhibitor] [at 7.69 µM],inactive: -9.78%,,,,,,"inconclusive: 6.31 µM [inhibitor, single point]"
